# Laboratory results as given in PubChem BioAssay AID1461 (National Center for Advancing Translational Sciences (NCATS), 2008).
# Out of some 220,000 compounds screened, about 2,300 (1%) were called active. The shares of active, inactive and inconclusive entries below differ from those in the screen. The call rests on the fitted dose curve; in most records, active means well fitted inhibition curve with a large enough effect; inconclusive means small, poorly fitted or top-dose-only effect, or effect the other way; inactive means no such curve, though single readings can be large or run the other way. No potency is given beside an inconclusive call; the fits are too rough.
# Biological target: Neuropeptide S receptor (Homo sapiens) (UniProt Q6W5P4)
# Assay: qHTS Assay for Antagonists of the Neuropeptide S Receptor: cAMP Signal Transduction; further: nearly all actives have a fitted effect of over 50% in size
# Conditions: CHO-NPSR cells, cAMP TR-FRET, antagonist mode; series mostly up to 38.3 µM
# Potency means the concentration at half of the fitted maximal effect; tags describe the fitted curve by direction and shape.
# Chain of UniProt Q6W5P4 (Q6W5P4 whole entry, looked up): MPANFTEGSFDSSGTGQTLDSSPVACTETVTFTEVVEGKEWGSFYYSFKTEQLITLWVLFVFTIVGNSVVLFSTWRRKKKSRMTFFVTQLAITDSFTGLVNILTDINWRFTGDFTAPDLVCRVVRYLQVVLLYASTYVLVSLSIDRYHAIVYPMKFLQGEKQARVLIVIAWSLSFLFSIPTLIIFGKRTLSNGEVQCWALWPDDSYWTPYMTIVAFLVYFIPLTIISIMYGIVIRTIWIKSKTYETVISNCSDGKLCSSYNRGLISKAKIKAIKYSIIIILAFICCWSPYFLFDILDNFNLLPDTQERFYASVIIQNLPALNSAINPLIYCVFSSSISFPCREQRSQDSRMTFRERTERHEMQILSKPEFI
row,SMILES,Potency
1,CCN1CCN(C2=NC(=O)/C(=C/c3ccc(C)o3)S2)CC1,"inconclusive [inhibitor, single point]"
2,COc1ccc(N=C2SC(CC(=O)Nc3ccccc3)C(=O)N2CCc2ccccn2)cc1 (centres undefined),inactive
3,Cc1cccc(NC(=O)CSC2=NN3CCCC(=O)N=C3S2)c1C,inactive
4,COc1ccc(C(C(=O)NC2CCCCC2)N(C(=O)c2sc(C)nc2C)c2ccc(C(C)=O)cc2)cc1 (centres undefined),"inconclusive [inhibitor, single point]"
5,Cc1ccc(-c2n[nH]c(=S)n2/N=C/C=C\c2ccccc2[N+](=O)[O-])cc1,"inconclusive [inhibitor, partial curve, poor fit]"
6,Cc1ccc(S(=O)(=O)Oc2ccc(C3C4=C(CCCC4=O)OC4=C3C(=O)CCC4)cc2)cc1,"inconclusive [inhibitor, single point]"
7,CN1C2CCC1/C(=C\c1ccccc1Cl)C(=O)/C2=C\c1ccccc1Cl,"inconclusive [inhibitor, single point]"
8,Cc1ccc(N(CC(O)Cn2c3ccccc3c3ccccc32)S(C)(=O)=O)c(C)c1 (centres undefined),"inconclusive [inhibitor, single point]"
9,NC(=S)N/N=C/c1ccc(-c2ccc(SC(F)F)cc2)o1,"inconclusive [activator, partial curve]"
10,O=S(=O)(Nc1ccc(-c2cn3ccccc3n2)cc1)c1ccccc1,"inconclusive [inhibitor, single point]"
11,COc1ccc(NC(=O)CCc2nc(-c3ccc(C)cc3)no2)c(OC)c1,inactive
12,CCNC(=S)NNC(=O)c1ccncc1,inactive
13,CCOC(=O)c1cnc(SC)nc1Oc1cccc(NS(=O)(=O)c2ccc(F)cc2)c1,"inconclusive [inhibitor, single point]"
14,COc1ccc(Br)cc1[C@H]1[C@H]2C=CC[C@@H](C)[C@@H]2C(=O)N1Cc1ccccc1,"inconclusive [inhibitor, single point]"
15,O=C(CSc1nnc(NC2CCCCC2)s1)Nc1ccc2c(c1)C(=O)c1ccccc1C2=O,inactive
16,O=S(=O)(N/N=C1\CC(c2ccccc2)Oc2ccccc21)c1ccccc1 (centres undefined),"inconclusive [inhibitor, partial curve]"
17,O=C(O)COc1ccc(/C=N/NC(=O)COc2nsnc2N2CCOCC2)cc1,inactive
18,CC1(C)Cc2nc3oc4c(=S)nc[nH]c4c3cc2CO1,"inconclusive [activator, partial curve]"
19,O=C(C1COc2ccccc2O1)N1CCc2ccccc21 (centres undefined),"inconclusive [inhibitor, single point]"
20,Cc1ccccc1CNC(=O)c1ccccc1C(=O)O,inactive
21,CCCC1CC(CSc2ncn[nH]2)OC1=O (centres undefined),inactive
22,Cc1ccc(Oc2ncccc2COC(=O)Nc2ccccc2C)cc1,"inconclusive [inhibitor, single point]"

row,SMILES,Potency
1,Clc1ccc(NNc2ccnc3cc(Cl)ccc23)cc1,inactive
2,O=C(Nc1ccc(OC(F)F)c(Cl)c1)[C@@H]1CCCN1C(=O)c1cccs1,"inconclusive [activator, full curve, poor fit]"
3,O=[N+]([O-])c1ccc(/C=N/Nc2nc(-c3ccccc3)c3cc(Br)ccc3n2)o1,"inconclusive [inhibitor, single point]"
4,CCOc1cccc(-c2nn3c(-c4ccccn4)nnc3s2)c1,"inconclusive [inhibitor, single point]"
5,N#Cc1c(-c2ccco2)nc(SCC(=O)Nc2cccc(Cl)c2)[nH]c1=O,"inconclusive [activator, partial curve]"
6,CC(O)CNCCOc1ccccc1-c1ccccc1 (centres undefined),inactive
7,O=C(CCCc1ccccc1)N1CCN(c2ccc([N+](=O)[O-])cc2)CC1,"inconclusive [inhibitor, single point]"
8,O=C(Cc1ccccc1)N/N=C/c1ccc2cccc(O)c2n1,inactive
9,CCOc1ccc(N2C(=O)NC(Cc3c[nH]c4ccccc34)C2=O)cc1 (centres undefined),"inconclusive [inhibitor, partial curve]"
10,O=c1cc(-c2c(F)c(F)c(F)c(F)c2F)oc2c(F)c(F)c(F)c(F)c12,active: 3.16 µM
11,CCCN(CCC)CC(O)Cn1cc(/C=C/C(=O)c2ccccc2)c2ccccc21 (centres undefined),"inconclusive [inhibitor, single point]"
12,N#CC1CCCc2c1[nH]c1ccc([N+](=O)[O-])cc21 (centres undefined),"inconclusive [inhibitor, single point]"
13,Cc1ccc(Cl)c(OCC(O)CN(CCO)CCO)c1 (centres undefined),"inconclusive [inhibitor, single point]"
14,O=C(Nc1ccc(-c2nc3ccccc3o2)cc1)c1ccc(N2CCOCC2)c([N+](=O)[O-])c1,"inconclusive [inhibitor, single point]"
15,CC(=O)N[C@H](C(=O)O)C(C)(C)SN=O,"inconclusive [inhibitor, single point]"
16,COc1ccccc1CNC(=O)c1csc(Cc2ccc(Cl)cc2)n1,"inconclusive [inhibitor, partial curve]"
17,COC(=O)c1cc2ccsc2n1CC(=O)N1CCCc2ccccc21,"inconclusive [inhibitor, partial curve, poor fit]"
18,CN(C)CCCN1C(=O)c2cccc3c([N+](=O)[O-])ccc(c23)C1=O,"inconclusive [inhibitor, single point]"
19,CC(C)Oc1cc(NC(=O)CSCC(=O)Nc2cccc(C(F)(F)F)c2)c(Cl)cc1Cl,"inconclusive [inhibitor, single point]"
20,CCOC(=O)c1c(-c2ccc(F)cc2)csc1NC(=O)C1CC=CCC1C(=O)O (centres undefined),inactive
21,CC(C)Cc1nc(C(N)=O)c2[nH]c(=O)n(-c3ccc(F)cc3)c2n1,inactive
22,Cc1nc(N2CCOCC2)nc(Oc2ccccc2F)c1[N+](=O)[O-],"inconclusive [activator, partial curve]"
